{"source": "patent US20240262902A1", "about": "(AstraZeneca / MedImmune, published 2024)", "target": "T1, tumor necrosis factor alpha (TNFα), recombinant human (R&D Systems) (human, UniProt P01375 part only)", "T1 construct": "Bought protein (R&D Systems)", "T1 sequence (P01375 77-233 limits assumed)": "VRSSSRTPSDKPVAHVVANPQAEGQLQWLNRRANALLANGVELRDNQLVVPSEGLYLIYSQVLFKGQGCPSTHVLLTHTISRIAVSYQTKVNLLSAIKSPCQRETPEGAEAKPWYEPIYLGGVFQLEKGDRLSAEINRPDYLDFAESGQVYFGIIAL", "experiment": "single antigen ELISA, TNFα coated, detection with anti-human IgG Fc-HRP", "description": "Nunc Maxisorp wells were coated at 4° C. overnight with 50 μl of TNFα (R&D Systems) diluted to 5 μg ml⁻¹ in PBS (pH 7.4). The following day the coating solution was removed and the wells blocked with 150 μl of blocking buffer [3% skimmed milk-PBS] for 1 h at room temperature. The wells were rinsed three times in PBS, prior to the addition of 50 μl of a dilution series of TNFR2-Fc_VH #4 made in blocking buffer. After 1 h at room temperature, the wells were washed three times in PBS-Tween 20 (0.1% v/v; PBS-T). Fifty microliters of biotinylated NGF was then added to the wells and incubated for a further hour at room temperature, prior to washing as above and addition of 50 μl of streptavidin-HRP (1:100). […] The reaction was stopped by the addition of 1M H₂SO₄ and the absorbance at 450 nm was measured using a microtiter plate reader. The resulting data were analyzed using Prism 5 software (GraphPad, San Diego, CA). For the single antigen binding ELISA, the wells were coated with either TNFα or NGF-biotin as above and antibody binding detected with anti-Human IgG Fc specific HRP conjugated antibody (1:5000), and color developed as above.\nTNFR2-Fc_VH #4 was designed to bind to both TNFα and NGF antigens. […] Specific binding was detected by using a horseradish peroxidase (HRP)-conjugated anti-IgG Fc specific antibody. […] Specific binding was then detected using an HRP-conjugated streptavidin. […]"}
{"binder": "TNFR2-Fc_VH #4 (Fc fusion, Purified preparations also held N-terminally truncated species (175 residues missing); also called multispecific antibody) LPAQVAFTPYAPEPGSTCRLREYYDQTAQMCCSKCSPGQHAKVFCTKTSDTVCDSCEDSTYTQLWNWVPECLSCGSRCSSDQVETQACTREQNRICTCRPGWYCALSKQEGCRLCAPLRKCRPGFGVARPGTETSDVVCKPCAPGTFSNTTSSTDICRPHQICNVVAIPGNASMDAVCTSTSPTRSMAPGAVHLPQPVSTRSQHTQPTPEPSTAPSTSFLLPMGPSPPAEGSTGD[omitted - human IgG1 Fc]GGGGSGGGGSQVQLVQSGAEVKKPGSSVKVSCKASGGTFSTYGISWVRQAPGQGLEWMGGIIPIFDTGNSAQSFQGRVTITADESTSTAYMELSSLRSEDTAVYYCARSSRIYDLNPSLTAYYDMDVWGQGTMVTVSSGGGGSGGGGSGGGGSAQSVLTQPPSVSAAPGQKVTISCSGSSSNIGNNYVSWYQQLPGTAPKLLIYDNNKRPSGIPDRFSGSKSGTSATLGITGLQTGDEADYYCGTWDSSLSAWVFGGGTKLTVL", "values": [{"measurement": "binding result", "result": "binds"}]}
